# Source: the supplement of paper PMC8728848
# The list shows a part of the results.
# Tests used:
# Experiment in all cases: glycan array binding signal (z-score within array); higher = stronger binding
# Conditions in all cases: glycan notation: IUPAC condensed, linker removed
# [1] = molecular target: Neu5Ac(a2-3)Gal(b1-4)GlcNAc(b1-2)[Neu5Ac(a2-3)Gal(b1-4)GlcNAc(b1-4)]Man(a1-3)[GlcNAc(b1-4)][Neu5Ac(a2-3)Gal(b1-4)GlcNAc(b1-4)Man(a1-6)]Man(b1-4)GlcNAc(b1-4)GlcNAc
# In short: (§1)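 Glycan array data were curated from 3228 arrays in the Consortium for Functional Glycomics database and kept only where the protein sequence was available. Glycan names were converted to IUPAC-condensed notation, and columns mapping to the same glycan were averaged. The binding signal is a within-array Z-score, averaged across arrays of the same protein sequence at different concentrations or buffers and across linkers. Negative Z-scores can be read as non-binding.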
# [2] = molecular target: Neu5Ac(a2-3)Gal(b1-4)GlcNAc(b1-2)[Neu5Ac(a2-3)Gal(b1-4)GlcNAc(b1-6)]Man(a1-6)[Neu5Ac(a2-3)Gal(b1-4)GlcNAc(b1-2)Man(a1-3)]Man(b1-4)GlcNAc(b1-4)GlcNAc
# In short: as §1
# [3] = molecular target: Neu5Ac(a2-3)Gal(b1-4)GlcNAc(b1-2)[Neu5Ac(a2-3)Gal(b1-4)GlcNAc(b1-6)]Man(a1-6)[Neu5Ac(a2-3)Gal(b1-4)GlcNAc(b1-2)Man(a1-3)][GlcNAc(b1-4)]Man(b1-4)GlcNAc(b1-4)GlcNAc
# In short: as §1
# [4] = molecular target: Neu5Ac(a2-3)Gal(b1-4)GlcNAc(b1-3)Gal
# In short: as §1
# [5] = molecular target: Neu5Ac(a2-3)Gal(b1-4)GlcNAc(b1-3)Gal(b1-3)GlcNAc
# In short: as §1
# [6] = molecular target: Neu5Ac(a2-3)Gal(b1-4)GlcNAc(b1-3)Gal(b1-4)GlcNAc
# In short: as §1
# [7] = molecular target: Neu5Ac(a2-3)Gal(b1-4)GlcNAc(b1-3)Gal(b1-4)GlcNAc(b1-2)Man(a1-3)[Neu5Ac(a2-3)Gal(b1-4)GlcNAc(b1-3)Gal(b1-4)GlcNAc(b1-2)Man(a1-6)]Man(b1-4)GlcNAc(b1-4)GlcNAc
# In short: as §1
# [8] = molecular target: Neu5Ac(a2-3)Gal(b1-4)GlcNAc(b1-3)Gal(b1-4)GlcNAc(b1-3)Gal(b1-4)GlcNAc
# In short: as §1
# [9] = molecular target: Neu5Ac(a2-3)Gal(b1-4)GlcNAc(b1-3)Gal(b1-4)GlcNAc(b1-3)Gal(b1-4)GlcNAc(b1-2)Man(a1-3)[Neu5Ac(a2-3)Gal(b1-4)GlcNAc(b1-3)Gal(b1-4)GlcNAc(b1-3)Gal(b1-4)GlcNAc(b1-2)Man(a1-6)]GalNAc
# In short: as §1
# [10] = molecular target: Neu5Ac(a2-3)Gal(b1-4)GlcNAc(b1-3)Gal(b1-4)GlcNAc(b1-3)GalNAc
# In short: as §1
# [11] = molecular target: Neu5Ac(a2-3)Gal(b1-4)GlcNAc(b1-3)Gal(b1-4)GlcNAc(b1-3)[Neu5Ac(a2-3)Gal(b1-4)GlcNAc(b1-3)Gal(b1-4)GlcNAc(b1-6)]GalNAc
# In short: as §1
# [12] = molecular target: Neu5Ac(a2-3)Gal(b1-4)GlcNAc(b1-3)Gal(b1-4)GlcNAc(b1-6)[Gal(b1-3)]GalNAc
# In short: as §1
# [13] = molecular target: Neu5Ac(a2-3)Gal(b1-4)GlcNAc(b1-3)Gal(b1-4)[Fuc(a1-3)]GlcNAc
# In short: as §1
# [14] = molecular target: Neu5Ac(a2-3)Gal(b1-4)GlcNAc(b1-3)GalNAc
# In short: as §1
# [15] = molecular target: Neu5Ac(a2-3)Gal(b1-4)GlcNAc(b1-3)[Neu5Ac(a2-3)Gal(b1-4)GlcNAc(b1-6)]GalNAc
# In short: as §1
# [16] = molecular target: Neu5Ac(a2-3)Gal(b1-4)GlcNAc(b1-6)GalNAc
# In short: as §1
# [17] = molecular target: Neu5Ac(a2-3)Gal(b1-4)GlcNAc(b1-6)[Gal(b1-3)]GalNAc
# In short: as §1
# [18] = molecular target: Neu5Ac(a2-3)Gal(b1-4)GlcNAc(b1-6)[Neu5Ac(a2-3)Gal(b1-3)]GalNAc
# In short: as §1
# [19] = molecular target: Neu5Ac(a2-3)Gal(b1-4)GlcNAc6S
# In short: as §1
# [20] = molecular target: Neu5Ac(a2-3)Gal(b1-4)[Fuc(a1-3)]GlcNAc
# In short: as §1
# [21] = molecular target: Neu5Ac(a2-3)Gal(b1-4)[Fuc(a1-3)]GlcNAc(b1-2)Man
# In short: as §1
# [22] = molecular target: Neu5Ac(a2-3)Gal(b1-4)[Fuc(a1-3)]GlcNAc(b1-3)Gal
# In short: as §1
# [23] = molecular target: Neu5Ac(a2-3)Gal(b1-4)[Fuc(a1-3)]GlcNAc(b1-3)Gal(b1-4)GlcNAc
# In short: as §1
# [24] = molecular target: Neu5Ac(a2-3)Gal(b1-4)[Fuc(a1-3)]GlcNAc(b1-3)Gal(b1-4)[Fuc(a1-3)]GlcNAc(b1-3)Gal(b1-4)[Fuc(a1-3)]GlcNAc
# In short: as §1
# [25] = molecular target: Neu5Ac(a2-3)Gal(b1-4)[Fuc(a1-3)]GlcNAc(b1-3)GalNAc
# In short: as §1
# [26] = molecular target: Neu5Ac(a2-3)Gal(b1-4)[Fuc(a1-3)]GlcNAc(b1-6)[Gal(b1-3)]GalNAc
# In short: as §1
# [27] = molecular target: Neu5Ac(a2-3)Gal(b1-4)[Fuc(a1-3)]GlcNAc(b1-6)[Neu5Ac(a2-3)Gal(b1-3)]GalNAc
# In short: as §1
# [28] = molecular target: Neu5Ac(a2-3)Gal(b1-4)[Fuc(a1-3)]GlcNAc6S
# In short: as §1
# [29] = molecular target: Neu5Ac(a2-3)Gal6S(b1-4)GlcNAc
# In short: as §1
# [30] = molecular target: Neu5Ac(a2-3)Gal6S(b1-4)[Fuc(a1-3)]GlcNAc
# In short: as §1
# [31] = molecular target: Neu5Ac(a2-3)GalNAc
# In short: as §1
# [32] = molecular target: Neu5Ac(a2-3)GalNAc(b1-4)GlcNAc
# In short: as §1
# [33] = molecular target: Neu5Ac(a2-3)[GalNAc(b1-4)]Gal(b1-4)Glc
# In short: as §1
# [34] = molecular target: Neu5Ac(a2-3)[GalNAc(b1-4)]Gal(b1-4)GlcNAc
# In short: as §1
# [35] = molecular target: Neu5Ac(a2-3)[GalNAc(b1-4)]Gal(b1-4)GlcNAc(b1-3)GalNAc
# In short: as §1
# [36] = molecular target: Neu5Ac(a2-3)[Neu5Ac(a2-6)]GalNAc
# In short: as §1
# [37] = molecular target: Neu5Ac(a2-6)Gal
# In short: as §1
binder,measurement,setting,value
SP8524D-bot-399-27-399 (Bacteroides ovatus) (protein) DAKYDTLDTHAYIEEALSSTSQKVTVQATGESFTTLNVHLSNLSSTDNHYKLVTDQSVLDTYNHINGTGYIMLPKDYYTLPETITVKAGQYAADALSIALKAFSQEMMKSGESYALPVKLVLQDGSISPMENTGTFVILAESIIEFSAPMFVGAPSLKANKFTESPETYSQYTIEVRFQVANTADRDRAVFKNGGDDANFILLRFEDPQSDNENYKAHSLVQIVGRNRLYLNPSNSFKPNEWQHLALVCDGSNYRLYINGVDSGVLSIPTGATTFSDVNWFCLGDDSYSRWGNCKILMSEARIWSVVRSASQIQNNMTQVSPKSVGLEAYWRFNEGQGNVFEDATGKGHTLTTSATPTWIDGILSTDKSTEWK,glycan array binding signal (z-score),[1],-0.014
same,glycan array binding signal (z-score),[2],0.013
same,glycan array binding signal (z-score),[3],0.088
same,glycan array binding signal (z-score),[4],-0.252
same,glycan array binding signal (z-score),[5],0.167
same,glycan array binding signal (z-score),[6],0.179
same,glycan array binding signal (z-score),[7],-0.319
same,glycan array binding signal (z-score),[8],-0.182
same,glycan array binding signal (z-score),[9],0.421
same,glycan array binding signal (z-score),[10],0.139
same,glycan array binding signal (z-score),[11],-0.1
same,glycan array binding signal (z-score),[12],-0.302
same,glycan array binding signal (z-score),[13],-0.349
same,glycan array binding signal (z-score),[14],0.237
same,glycan array binding signal (z-score),[15],-0.17
same,glycan array binding signal (z-score),[16],-0.302
same,glycan array binding signal (z-score),[17],-0.279
same,glycan array binding signal (z-score),[18],-0.033
same,glycan array binding signal (z-score),[19],-0.046
same,glycan array binding signal (z-score),[20],-0.144
same,glycan array binding signal (z-score),[21],-0.261
same,glycan array binding signal (z-score),[22],-0.297
same,glycan array binding signal (z-score),[23],0.136
same,glycan array binding signal (z-score),[24],-0.407
same,glycan array binding signal (z-score),[25],0.96
same,glycan array binding signal (z-score),[26],0.604
same,glycan array binding signal (z-score),[27],-0.141
same,glycan array binding signal (z-score),[28],0.336
same,glycan array binding signal (z-score),[29],-0.272
same,glycan array binding signal (z-score),[30],-0.221
same,glycan array binding signal (z-score),[31],-0.038
same,glycan array binding signal (z-score),[32],-0.22
same,glycan array binding signal (z-score),[33],0
same,glycan array binding signal (z-score),[34],-0.104
same,glycan array binding signal (z-score),[35],0.38
same,glycan array binding signal (z-score),[36],-0.002
same,glycan array binding signal (z-score),[37],-0.011
